PubChem BioAssay AID889 (National Center for Advancing Translational Sciences (NCATS), 2007)
The whole screen tested about 75,000 compounds, of which about 15 (0.02%) were called active. Inconclusive results, whose numbers are uncertain, are shown with a selection of clear calls. Calls come from the whole dose curve; as a rule, active = well fitted inhibition curve with a large enough effect in the main read-out, with a control signal flat (not every such curve was filed as active); inconclusive = small, poorly fitted or top-dose-only effect, or a change in a side signal; inactive = flat fitted curve, though single readings scatter. A potency beside an inconclusive call is a rough fit, not a confirmed value. A note “side channel” means that the fit belongs to a control or component signal, not to the main read-out.

biological target: Caspase-7 (Homo sapiens) (UniProt P55210); assay: qHTS Assay for Allosteric/Competitive Inhibitors of Caspase-7; conditions: recombinant caspase-7, Ac-DEVD-AFC fluorescence rate; activity change, negative = inhibition: at 57.5 µM (top of the series) unless noted; for activity change, negative = inhibition: % of control where 0% means no effect
Potency is the fitted concentration of half-maximal effect; tags give direction and shape of the fitted curve or compound fluorescence and quenching.

UniProt P55210, sequence (P55210 whole entry, looked up): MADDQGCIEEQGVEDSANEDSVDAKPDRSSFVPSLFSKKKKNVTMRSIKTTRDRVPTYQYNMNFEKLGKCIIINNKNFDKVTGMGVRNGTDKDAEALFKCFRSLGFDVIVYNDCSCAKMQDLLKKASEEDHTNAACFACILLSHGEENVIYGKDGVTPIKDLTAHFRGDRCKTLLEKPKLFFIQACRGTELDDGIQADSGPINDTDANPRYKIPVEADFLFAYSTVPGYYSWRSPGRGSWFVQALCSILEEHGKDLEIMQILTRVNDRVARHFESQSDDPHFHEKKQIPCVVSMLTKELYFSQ

Structure (SMILES) | Potency | activity change, negative = inhibition
O=c1oc2c(CN3CCOCC3)c(O)c(Cl)cc2c2c1CCC2 | inconclusive: 6.31 µM [fluorescent, side channel, partial curve] | 
CCNc1ncc2nc(-c3cn(C)c4ccccc34)c(=O)n(-c3ccccc3)c2n1 | inconclusive: 1.58 µM [fluorescent, side channel, partial curve] | 
COc1cccc(Nc2ncc3nc(-c4ccc(F)cc4)c(=O)n(C[C@H]4CCCO4)c3n2)c1 | inconclusive: 2.51 µM [fluorescent, partial curve] | 
CCNc1ncc2nc(-c3ccc(Cl)cc3)c(=O)n(C)c2n1 | inconclusive: 2.51 µM [fluorescent, full curve] | 
Cc1cc2c(c(=O)n1CC1CCCO1)C(c1ccco1)C(C#N)=C(N)O2 (stereo unspecified) | inconclusive: 31.6 µM [fluorescent, single point] | 
O=C(NC1CCCC1)c1ccc2nc[nH]c2c1 |  | inactive: 1.05%
Cc1cc(NCc2ccco2)nc2cc(O)ccc12 | inconclusive: 15.8 µM [fluorescent, side channel, partial curve] | 
CC1=C(/C=C/C(C)=C/C=C/C(C)=C/C=C/C=C(C)/C=C/C=C(C)/C=C/C(=O)[C@]2(C)CC(O)CC2(C)C)C(C)(C)CC(O)C1 (stereo partly specified) |  | inactive: -0.518%
CCOC(=O)N1CCN(C(=O)c2ccc3nc4ccc(Cl)cc4c(=O)n3c2)CC1 | inconclusive: 3.98 µM [inhibitor, partial curve] | 
Cn1cc(-c2nc3cnc(Oc4cccc(Cl)c4)nc3n(CCC#N)c2=O)c2ccccc21 | inconclusive: 2.51 µM [fluorescent, full curve] | 
COCCN(C(=O)C(C)C)c1nnc(-c2cccc(C)c2)s1 |  | inactive: 0.868%
O=C(c1cccn2c(=O)c3cc(Cl)ccc3nc12)N1CCN(Cc2ccc3c(c2)OCO3)CC1 | inconclusive: 6.31 µM [fluorescent, side channel, partial curve] | 
COc1ccc(CNC(=O)c2cc3c(=O)n4ccccc4nc3n(CC3CCCO3)c2=N)cc1 (stereo unspecified) | inconclusive: 12.6 µM [inhibitor, partial curve] | 
COCCn1c(C)cc(C(=O)CSc2nc(C)cc(C)c2C#N)c1C | inconclusive: 20 µM [inhibitor, partial curve] | 
C=C(C)CSc1nc(N)c(C#N)c(-c2ccc(C)cc2)c1C#N |  | inactive: -12.5%
Nc1c(C(=O)NCc2ccc3c(c2)OCO3)c2nc3ccccc3nc2n1CCCN1CCOCC1 | inconclusive: 15.8 µM [fluorescent, side channel, partial curve] | 
COCC(=O)N1CCC2(CC1)CN(Cc1cc(C(F)(F)F)cc(C(F)(F)F)c1)C2 |  | inactive: 0.438%
O=c1[nH]c2cc3c(cc2cc1C(c1nnnn1CC1CCCO1)N1CCCCCC1)OCO3 (stereo unspecified) | inconclusive: 20 µM [inhibitor, single point] | 
CCN(CC)c1ccc(C2C(C(=O)OCCOC)=C(C)NC3=C2C(=O)CC(C)(C)C3)cc1 (stereo unspecified) | inconclusive: 25.1 µM [fluorescent, partial curve] | 
COCCn1c(=O)c(-c2cn(C)c3ccccc23)nc2cnc(Oc3ccccc3)nc21 | inconclusive: 12.6 µM [fluorescent, side channel, partial curve] | 
Cc1ccc2cc(C#N)c(NCCNC(=O)C3CCC3)nc2c1C | inconclusive: 15.8 µM [fluorescent, partial curve] | 

Structure (SMILES) | Potency | activity change, negative = inhibition
COCCOC(=O)c1cc(C(=O)c2cc(F)ccc2O)coc1=N | inconclusive: 25.1 µM [fluorescent, side channel, partial curve] | 
CC(C)(C)N1C(=O)Cc2c1nc(N)c1c(N)nc(N3CCCCC3CO)c(C#N)c21 (stereo unspecified) | inconclusive: 25.1 µM [inhibitor, partial curve] | 
Cc1nc2ccccc2n2c(O)c(CC(=O)O)cc12 | inconclusive: 20 µM [fluorescent, side channel, partial curve] | 
Cc1ccc2cc(C#N)c(N3CCCC3)nc2c1C | inconclusive: 25.1 µM [inhibitor, partial curve] | 
CC(=O)C[C@H](O)[C@@H](NC(=O)OC(C)(C)C)C(C)C |  | inactive: 1.37% [at 11.5 µM]
COc1ccc(C2CC(=O)N3CN(c4ccccc4F)CSC3=C2C#N)cc1OC (stereo unspecified) | inconclusive: 39.8 µM [inhibitor, single point] | 
C=CCNC(=O)c1c(N)n(-c2cccc(S(N)(=O)=O)c2)c2nc3ccccc3nc12 | inconclusive: 12.6 µM [fluorescent, side channel, partial curve] | 
Cc1ccc(C2C=C(c3ccccc3OC(F)F)Nc3ncnn32)cc1 (stereo unspecified) | inconclusive: 31.6 µM [fluorescent, single point] | 
N#CCCn1c(=O)c(-c2cc(F)cc(F)c2)nc2cnc(OCc3ccccc3)nc21 | inconclusive: 25.1 µM [fluorescent, single point] | 
COc1ccc(-c2nc3cnc(N(C)C)nc3n(C[C@H]3CCCO3)c2=O)cc1 | inconclusive: 0.794 µM [fluorescent, side channel, full curve] | 
O=c1c(-c2ccc(F)cc2)nc2cnc(N3CCNCC3)nc2n1Cc1cccs1 | inconclusive: 15.8 µM [fluorescent, partial curve] | 
N#CCCn1c(=O)c(-c2cc(F)cc(F)c2)nc2cnc(N3CCOCC3)nc21 | inconclusive: 6.31 µM [fluorescent, partial curve] | 
COc1ncc2nc(-c3ccc(F)cc3)c(=O)n(-c3ccccc3)c2n1 | inconclusive: 31.6 µM [inhibitor, single point] | 
CC(C)(C)c1cc(C(=O)/C=C/c2ccc(C(=O)O)cc2)cc(C(C)(C)C)c1 | inconclusive: 39.8 µM [inhibitor, single point] | 
Cc1ccc(-c2nn(-c3ccccc3)cc2/C=C(\C#N)c2cccc(C#N)c2)o1 | inconclusive: 25.1 µM [inhibitor, single point] | 
N#CCCn1c(=O)c(-c2cc(F)cc(F)c2)nc2cnc(Oc3cccc(Cl)c3)nc21 | inconclusive: 20 µM [fluorescent, partial curve] | 
COc1cccc(Nc2ncc3nc(-c4ccc(Cl)cc4)c(=O)n(C4CC4)c3n2)c1 | inconclusive: 2.51 µM [fluorescent, side channel, partial curve] | 
COc1ccccc1C(=O)C(O)c1ccccc1OC (stereo unspecified) |  | inactive: -0.715%
CC(=O)C1=C(C)NC(SCC(=O)c2cc(Cl)ccc2Cl)=C(C#N)C1c1ccco1 (stereo unspecified) | inconclusive: 31.6 µM [inhibitor, single point] | 
Cc1ccc2cc3c(NC(=O)CC(C)C)nn(C)c3nc2c1 | inconclusive: 15.8 µM [fluorescent, partial curve] | 
O=C1C(Cl)=C(N2CCCCC2)C(=O)N1c1ccccc1 |  | inactive: -10.6%

Structure (SMILES) | Potency | activity change, negative = inhibition
Cc1cc(C)n2c3c(c(C#N)c2n1)CCCC3 | inconclusive: 25.1 µM [fluorescent, partial curve] | 
CCN(C(=O)c1c(-c2ccccc2)noc1C)c1ccccc1 |  | inactive: 0.265%
CCCn1nc(NC(=O)c2ccco2)c2cc3ccc(C)cc3nc21 | inconclusive: 15.8 µM [fluorescent, partial curve] | 
CCOC(=O)c1cc(-c2ccc3c(c2)OCO3)nc2onc(C)c12 | inconclusive: 20 µM [fluorescent, side channel, partial curve] | 
COc1cc2cc(CN(Cc3nnnn3Cc3ccccc3)CC3CCCO3)c(=O)[nH]c2cc1OC (stereo unspecified) | inconclusive: 31.6 µM [fluorescent, single point] | 
CCN(CC)Cc1c(O)ccc2c(-c3ccccc3)cc(=O)oc12 | inconclusive: 15.8 µM [fluorescent, partial curve] | 
CCCCNC(=O)C1CCCN(S(=O)(=O)c2ccc(-n3cnnn3)cc2)C1 (stereo unspecified) |  | inconclusive: -56% [inhibitor] [at 0.00368 µM]
O=c1c(CCc2ccccc2)nc2cnc(N3CCNCC3)nc2n1-c1ccccc1 | inconclusive: 15.8 µM [fluorescent, side channel, partial curve] | 
CCc1ccc(C2CC(c3ccccc3Cl)Nc3nc(N)nn32)cc1 (stereo unspecified) |  | inactive: -4.36%
CCOC(=O)NC(=O)CSc1nc(C)cc(C)c1C#N | inconclusive: 25.1 µM [inhibitor, single point] | 
CCNc1ncc2nc(CCc3ccccc3)c(=O)n(C)c2n1 | inconclusive: 15.8 µM [fluorescent, side channel, partial curve] | 
CCOC(=O)c1[nH]c(=O)[nH]c1COC(=O)c1cc2ccccc2o1 | inconclusive: 3.16 µM [inhibitor, full curve] | 
Cc1c(C(=O)NC2CCCCC2)sc2nc3ccc(N)cc3n12 |  | inactive: 0.305%
COc1ccc(-n2c(=O)c(-c3cccs3)nc3cnc(N(C)C)nc32)cc1 | inconclusive: 1.58 µM [fluorescent, side channel, full curve] | 
O=C(c1cccc2c1-c1ccccc1/C2=N/O)N1CCCCC1 |  | inactive: -1.68%
CCNc1ncc2nc(-c3ccc(OC)cc3)c(=O)n(-c3ccc(OC)cc3)c2n1 | inconclusive: 2.51 µM [fluorescent, side channel, full curve] | 
Cc1ccc(Cl)cc1N1CCN(C(=O)CN2C(=O)c3cccc4cccc2c34)CC1 | inconclusive: 12.6 µM [fluorescent, partial curve] | 
Cc1c(Cl)c(S(N)(=O)=O)cc2c1=NC=NS=2(=O)O |  | inactive: 4.36% [at 11.5 µM]
CC1=C(C(=O)OCc2ccccc2)C(c2ccc(C3CCCCC3)cc2)NC(=O)N1CCCCCC(=O)O (stereo unspecified) |  | inactive: -18.8%
